The list shows a part of the results.
System: S. aureus RN4220
Experiment: growth inhibition call (relative growth <= 0.2)
Settings: 50 µM

Row | SMILES | growth inhibition call
1 | COc1cccc(NC(=O)N(C)C[C@@H]2Oc3cc(C#Cc4ccncc4)ccc3S(=O)(=O)N([C@@H](C)CO)C[C@@H]2C)c1 | inactive
2 | O=C(CCCCCNC(=O)OCc1ccc(CO[C@H]2C[C@@H](c3ccc(Br)cc3)C=C(C(=O)N3CCN(Cc4ccc5c(c4)OCO5)CC3)O2)cc1)NO | inactive
3 | Cc1noc(C)c1NC(=O)N(C)C[C@@H]1Oc2ccc(NC(=O)CCN3CCOCC3)cc2CC(=O)N([C@H](C)CO)C[C@@H]1C | inactive
4 | NCc1cccc(N2CCCC2)c1 | inactive
5 | COc1ccccc1CNC(=O)C[C@H]1C[C@@H]2c3cc(NS(=O)(=O)c4ccc(F)cc4)ccc3O[C@@H]2[C@H](CO)O1 | inactive
6 | CC(C)NC(=O)N(C)C[C@H]1Oc2c(NS(=O)(=O)c3cn(C)cn3)cccc2C(=O)N([C@@H](C)CO)C[C@H]1C | inactive
7 | Cc1ccc(S(=O)(=O)N(C)C[C@H]2OCCCC[C@@H](C)Oc3ccc(NC(=O)Nc4ccc5c(c4)OCO5)cc3C(=O)N([C@@H](C)CO)C[C@@H]2C)cc1 | inactive
8 | C[C@@H]1CN([C@H](C)CO)C(=O)c2cc(NS(=O)(=O)c3cn(C)cn3)ccc2O[C@@H]1CN(C)Cc1ccc2c(c1)OCO2 | inactive
9 | COC(=O)C1(C)CCCC2(C)c3ccc(O)c(C(C)C)c3CCC12 (stereo not given) | inactive
10 | C[C@H](CO)N1C[C@H](C)[C@@H](CN(C)S(=O)(=O)c2ccccc2F)Oc2cc(C#Cc3cccc(F)c3)ccc2S1(=O)=O | inactive
11 | CC1CCC2(OC1)OC1CC3C4CCC5CC(O)CCC5(C)C4CCC3(C)C1C2C (stereo not given) | inactive
12 | CCS(=O)(=O)Nc1ccc2c(c1)C(=O)N(C)[C@H]1CC[C@@H](CC(=O)NCc3ccccc3F)O[C@H]1CO2 | inactive
13 | CC(=O)N1CCC(C(=O)N2CCC(n3cc(C(C)(C)N)nn3)CC2)CC1 | inactive
14 | COc1ccc(NC(=O)N(C)C[C@@H]2OCCCC[C@@H](C)Oc3ccc(NC(=O)C4CCCCC4)cc3C(=O)N([C@@H](C)CO)C[C@H]2C)cc1 | inactive
15 | Cc1ccc(S[C@]2(C(=O)NC(C)C)CC(=O)N(Cc3cc(C(F)(F)F)cc(C(F)(F)F)c3)[C@@H]2c2ccc(CO)cc2)cc1 | inactive
16 | O=C(C[C@@H]1C[C@H]2c3cc(NS(=O)(=O)c4ccc(F)cc4)ccc3O[C@H]2[C@@H](CO)O1)NCc1ccccn1 | inactive
17 | CSc1ccc2cc(CN(C[C@H]3CCCO3)C(=O)c3ccco3)c(N(C)Cc3csc(C)n3)nc2c1 | inactive
18 | Cc1ccc(NC(=O)C[C@@H](N)C(=O)O)cc1 | inactive
19 | Cc1noc(C)c1NC(=O)N(C)C[C@H]1Oc2c(NC(=O)c3ccc(-c4nccs4)cc3)cccc2C(=O)N([C@@H](C)CO)C[C@@H]1C | inactive
20 | CCCCCC(=O)Cc1cc(O)cc(O)c1C(=O)Oc1cc(CC(=O)CCCCC)c(C(=O)O)c(OC)c1 | active

Row | SMILES | growth inhibition call
21 | COc1ccc(CCNC(=O)Nc2nn(Cc3ccc(COc4cccc(OC)c4)cc3)c3ccccc23)cc1 | inactive
22 | C[C@H](CO)N1C[C@H](C)[C@H](CN(C)C(=O)NC2CCCCC2)OCc2ccccc2-c2c(n(C)c3ccccc23)C1=O | inactive
23 | C[C@H](CO)N1C[C@H](C)[C@@H](CN(C)S(=O)(=O)c2ccc(F)cc2)Oc2ccc(NC(=O)CCCN(C)C)cc2C1=O | inactive
24 | CC(C)NC(=O)Nc1ccc2c(c1)C(=O)N([C@@H](C)CO)C[C@H](C)[C@H](CN(C)Cc1ccc(C(=O)O)cc1)O2 | inactive
25 | C[C@H]1CN([C@@H](C)CO)C(=O)c2cc(NC(=O)CCN3CCOCC3)ccc2O[C@@H]1CN(C)Cc1ccc(C(=O)O)cc1 | inactive
26 | CN(C)CCCNC(=O)C[C@@H]1CC[C@H]2[C@H](COc3ccc(NC(=O)c4ccc5c(c4)OCO5)cc3C(=O)N2C)O1 | inactive
27 | C[C@@H]1CCCCO[C@@H](CN(C)Cc2ccc3c(c2)OCO3)[C@@H](C)CN([C@H](C)CO)C(=O)c2cc(NC(=O)Nc3ccc(C(F)(F)F)cc3)ccc2O1 | inactive
28 | O=C(C[C@H]1CC[C@@H]2[C@H](COC[C@@H](O)CN2S(=O)(=O)c2ccc(Cl)cc2)O1)NCc1ccncn1 | inactive
29 | COCC(=O)N1C[C@H](C)[C@H](OC)CN(C)C(=O)c2ccc(NC(=O)Nc3ccccc3)cc2OC[C@@H]1C | inactive
30 | CC(C)=CCC/C(C)=C/CC1=C(C)C(=O)c2ccccc2C1=O | inactive
31 | C[C@@H]1CN([C@@H](C)CO)C(=O)c2cc(C3=CCCC3)cnc2O[C@@H]1CN(C)C(=O)c1ccc2c(c1)OCO2 | inactive
32 | C[C@@H]1CN([C@@H](C)CO)C(=O)CCCn2cc(nn2)CO[C@H]1CN(C)C(=O)Nc1ccc2c(c1)OCCO2 | inactive
33 | C[C@@H]1CN([C@@H](C)CO)S(=O)(=O)c2ccc(C#C[C@@H](C)O)cc2O[C@@H]1CN(C)C(=O)c1ccncc1 | inactive
34 | COc1ccc(NC(=O)Nc2ccc3c(c2)C(=O)N([C@@H](C)CO)C[C@@H](C)[C@H](CN(C)C(=O)Nc2cccc4ccccc24)OCCCC[C@H](C)O3)cc1 | inactive
35 | CN1C(=O)c2cc(NC(=O)C3CCOCC3)ccc2OC[C@@H]2O[C@@H](CC(=O)NCc3ccc4c(c3)OCO4)CC[C@@H]21 | inactive
36 | C[C@@H]1CN([C@@H](C)CO)C(=O)c2cc(NC(=O)CCC(F)(F)F)ccc2O[C@H]1CN(C)C(=O)Nc1cccc2ccccc12 | inactive
37 | COCC(=O)Nc1ccc2c(c1)C(=O)N(C)C[C@@H](OC)[C@@H](C)CN(Cc1ccccc1OC)[C@@H](C)CO2 | inactive
38 | Cc1cc(C)c2[nH]c3ccccc3c2n1 | inactive
39 | C[C@@H]1CCCCO[C@H](CN(C)C(=O)NC2CCCCC2)[C@@H](C)CN([C@@H](C)CO)C(=O)c2cc(NC(=O)c3ccccc3)ccc2O1 | inactive
40 | C[C@@H]1CN([C@@H](C)CO)C(=O)CCCn2nncc2CO[C@@H]1CN(C)S(C)(=O)=O | inactive
